Some of the results follow.

This assay deals with T1, OsWOX13 (Oryza sativa, UniProt Q5QMM3 1-267).
T1 sequence: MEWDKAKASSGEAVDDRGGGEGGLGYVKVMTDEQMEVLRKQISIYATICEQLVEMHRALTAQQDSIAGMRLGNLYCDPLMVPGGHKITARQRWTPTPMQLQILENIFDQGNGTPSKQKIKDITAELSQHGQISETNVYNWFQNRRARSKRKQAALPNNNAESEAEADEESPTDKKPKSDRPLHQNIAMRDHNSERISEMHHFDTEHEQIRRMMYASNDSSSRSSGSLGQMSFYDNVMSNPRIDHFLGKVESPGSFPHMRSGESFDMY
As to the kind of experiment: protein-binding microarray (RPBM); PBS, 2% BSA, 51.3 ng/ul salmon testes DNA, 50 uM zinc acetate, 200 nM TF, 25 C, 1 h; high values mean tight binding. The note with it: protein: recombinant; tags: N-terminal polyhistidine and DsRed monomer fusion (pET32a); label: CyDye5-dUTP incorporated in the synthesized complementary strand; 3' TTTTT single-stranded linker to array surface; dsDNA, one strand shown. The method, boiled down: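 Polyhistidine-tagged DsRed fusions of transcription factors, joined at the N-terminus, were expressed in E. coli BL21-CodonPlus and isolated on Ni–NTA. They were incubated at 200 nM for 1 h at 25 °C on a custom Agilent array, double-stranded and BSA-blocked, in PBS with 2% BSA, salmon testes DNA and 50 µM zinc acetate. The binding signal is per-feature fluorescence intensity (arbitrary units) read on an Axon 4000B scanner after washing.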
“TGGTGGTGGTGGTGGCTGTAGTGTGGAGGTGGTGGGGAGTCGGAGTCACCTAGTGCAG”: the binding signal is 10000 fluorescence intensity (a.u.).

For the sequence “AATTAGTAAATACTTAATTAATCATGAGAAAATGTATTGCCGGAGTCACCTAGTGCAG”, the binding signal is 3350 fluorescence intensity (a.u.).

Take “TATGATTATCACAAGTAATATATAAATTATTAGTCAAGTTCGGAGTCACCTAGTGCAG”: the binding signal was 33600 fluorescence intensity (a.u.).

With “GCCTTGGTGATTGATCGGAAGAAGGAAATGCAGGTGAGCACGGAGTCACCTAGTGCAG”, the binding signal was 37900 fluorescence intensity (a.u.).

Take “ATCTAAACAATTATTATACATTGTATTGTGCTTGTTAGGACGGAGTCACCTAGTGCAG”: the binding signal was 3620 fluorescence intensity (a.u.).

In the case of “ATATTAATTAAGGGATGGAATGGTGTACTTACTACAATAACGGAGTCACCTAGTGCAG”, the binding signal is 17300 fluorescence intensity (a.u.).

For the sequence “GTTACAGTGTAATTACATGCAAGTTACAGTGTAATTACACCGGAGTCACCTAGTGCAG”, the binding signal was 7940 fluorescence intensity (a.u.).

For “ATAGATCATTTATATGTTTGACATGCATTTCATTATTTAGCGGAGTCACCTAGTGCAG”, the binding signal is 5490 fluorescence intensity (a.u.).

With “TTTAAATTTAGATTTGCATGTTTGTTTATTGGTTTATACCCGGAGTCACCTAGTGCAG”, the binding signal was 46200 fluorescence intensity (a.u.).

In the case of “AATCGGATTAGATATAACATAATACTATAATCTGAACATGCGGAGTCACCTAGTGCAG”, the binding signal is 7180 fluorescence intensity (a.u.).

On to “CGCGTGTGTGATTGCCTTTTGCTAGCCAAATTGTGGTTTTCGGAGTCACCTAGTGCAG”, for which the binding signal was 15000 fluorescence intensity (a.u.).

On to “CTAATACTTAATTAATCACGCGCTAATAAACTACCTCGTTCGGAGTCACCTAGTGCAG”, for which the binding signal was 22300 fluorescence intensity (a.u.).

For the sequence “AATCATAACACACCTCAATCACTCCAATCTCAACCATAAGCGGAGTCACCTAGTGCAG”, the binding signal is 6210 fluorescence intensity (a.u.).

Take “ATTTGACAAATAACTATTTGTCACCTCTATCTCAATGACACGGAGTCACCTAGTGCAG”: the binding signal is 6420 fluorescence intensity (a.u.).

“CGATTTAAATTTTAAAATTTAAAGTTAAATTTTGAAAACTCGGAGTCACCTAGTGCAG”: the binding signal was 15400 fluorescence intensity (a.u.).

As for “ATCATCATCAGTTTTATAATTATCCGAAGCAACAACAAACCGGAGTCACCTAGTGCAG”, the binding signal is 8500 fluorescence intensity (a.u.).

Take “TGGAGAAAATTTGATATGATCAATCTTGACGGATAGCTCGCGGAGTCACCTAGTGCAG”: the binding signal was 8440 fluorescence intensity (a.u.).

On to “GCTAATCATAGACTAATTAGACTCAAAAGATTAGTCTCGCCGGAGTCACCTAGTGCAG”, for which the binding signal is 52800 fluorescence intensity (a.u.).

With “GCTAATCATTATCTAAGATAAAGAGAGGCTGCTACCTGGACGGAGTCACCTAGTGCAG”, the binding signal was 5340 fluorescence intensity (a.u.).

On to “CAGCGCCATCAATTATTTACCAATAGGGTTTGCTCTTAATCGGAGTCACCTAGTGCAG”, for which the binding signal is 3940 fluorescence intensity (a.u.).

For the sequence “TTTACTCAATTGACATTGGAGATGTTTATGAAATAATAGCCGGAGTCACCTAGTGCAG”, the binding signal is 3270 fluorescence intensity (a.u.).

Turning to “ATATGTAATTATAATAATTTTCATTATTTACTCAATTAATCGGAGTCACCTAGTGCAG”, the binding signal is 21700 fluorescence intensity (a.u.).

“TATATATATATATATATATATATATCGAAGCAAATTCCCACGGAGTCACCTAGTGCAG”: the binding signal is 29700 fluorescence intensity (a.u.).

The values are drawn from article PMC7819943, “Rice protein-binding microarrays: a tool to detect cis-acting elements near promoter regions in rice”.
